Assay results reported in the supplement of paper PMC3334620.
Whole data set: some 33,000 sequences, median “E-score (-0.5 to 0.5)” near -0.01, cut for the highest 2% near 0.26. This is one part of the list.

These sequences were tested against Ste12 (UniProt P13574) (assay: PBM E-score (8-mer binding enrichment) (E-score (-0.5 to 0.5)); higher = stronger / more preferred TF binding; most listed sequences are background and not binding sites). Details: protein concentration: 200 nM; construct: GST-DNA-binding domain.
Method in brief: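 Yeast transcription factors, full-length or as DNA-binding domains, were expressed with a GST tag using PURExpress in vitro transcription/translation. At about 100-200 nM they were applied to universal all-10-mer Agilent arrays, double-stranded by primer extension on fresh or once-stripped slides. Fluorescent anti-GST detected bound protein, and masliner normalised the scans. E-scores for ungapped eight-base words, pooled with reverse complements, came from the Universal PBM Analysis Suite.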

Sequence | PBM E-score
ACGATTTC | 0.0655
AGATCGAT | 0.042
CCGTGAAC | -0.0201
CGATTTTA | 0.259
ACCCACAG | -0.131
CGCGAATA | 0.0618
CAGAAATC | 0.0243
CAGACGTC | -0.15
AAGGTTCT | 0.0379
CTATGTCC | -0.134
CCTGGTTC | -0.0593
AAGAAAAC | 0.275
ATATCGAA | 0.184
ATACGGAC | -0.0508
ACGATCTC | -0.112
ATTCGATA | 0.184
CAAGACGC | 0.165
GGAAAAAA | 0.309
CACCAAGG | -0.0541
GAGAAAAA | 0.147
TCCGGTAA | 0.015
ATGCTACC | 0.083

Sequence | PBM E-score
AAAGCGAT | 0.09
CGCTACAG | -0.0906
CGTAATGC | -0.155
AATACCTA | 0.0687
TCAAGAAA | 0.256
AGAAGCAT | 0.0473
CCCATGGG | 0.157
GTATACTA | -0.0508
GCAGGTAC | -0.204
ACCATGGG | -0.124
GCCGCAAA | 0.147
TATTAGAA | 0.0955
ACCCTAAA | 0.163
AGGAAAAA | 0.16
CGTCTGCC | -0.0908
ATTCTTGC | 0.19
GCTCGGAC | -0.236
AGAGCATA | -0.0337
CGCAGCAC | -0.0772
AATATGGG | 0.119
CTTGCTCA | -0.116
ACATACAT | 0.263

Sequence | PBM E-score
ACAGCAAA | 0.144
CGTGGAAA | 0.19
ACACCCGG | -0.0238
AGTTGCAT | -0.0636
GCCGGAAC | 0.2
ACATTTCA | 0.0519
ATAGTTCA | -0.0273
AATCCCGA | 0.255
ATAATGCA | 0.0574
GTCACCCA | -0.106
CTTACACA | -0.0439
AACAGGCA | -0.148
GTAGCAAC | -0.17
CACGTTGG | -0.0653
ACGGCGCG | -0.115
ACTCCATA | -0.0663
ATAGCCGC | -0.016
CGTCGACC | -0.0841
CACCGCAG | 0.057
CGTTTAGA | 0.0822
GAGCGCCA | -0.15
AACTACGC | 0.0692

Sequence | PBM E-score
AAGACCAG | -0.15
GATATATC | -0.00788
ACTGAGTA | -0.148
CTGGAATA | 0.0549
GTCCACAC | -0.05
TCAGCCAA | -0.0131
ATCTCGCA | 0.107
AGAATGCG | 0.038
AGCAGCCG | 0.0132
ATGTCACA | 0.239
TGATGGAA | 0.0104
AATGTGAG | 0.00388
GTTTAAAA | 0.3
AAGACTAA | 0.132
ATTTCAGG | 0.112
GCCATTGA | -0.0202
CCAACTTA | 0.0138
GAAGCTGC | -0.0801
CCTTTGAC | 0.0362
CTCTTGGC | -0.0666
CGCGTCAC | -0.0307
CGAAGGCA | -0.141

Sequence | PBM E-score
ATGTTGGC | 0.112
AAGTGACC | -0.135
TAGCGCTA | -0.0612
ATCGGTAC | -0.0762
ATCATAGA | 0.0892
AAGGACGT | -0.0421
TATGGGGA | 0.195
ACATGCCG | -0.00746
AAAGTCGT | -0.0472
AAGCGGCT | 0.0417
ATCCCAAC | -0.00567
CAAAACTG | 0.116
CTATCGTC | -0.248
CTGGCTTC | -0.0802
ACGAAAAC | 0.25
CTAGTAAA | 0.194
ACAGGCGA | -0.213
ACAGCTCG | -0.157
GACCTTCA | -0.206
CGACTGCC | -0.0302
ATTAAACG | 0.155
